Test results as given in the supplement of paper PMC3724861.
This is one part of the list.

System: T1, Caupolican (Caup) homeodomain DNA-binding domain
T1 sequence: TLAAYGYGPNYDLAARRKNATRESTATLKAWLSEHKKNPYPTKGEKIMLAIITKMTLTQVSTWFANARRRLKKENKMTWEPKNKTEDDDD
Assay: PBM E-score (8-mer, recovered from the published 9-mer minima) (E-score (dimensionless, -0.5 to 0.5)); Drosophila protein; higher = stronger relative binding preference, active = 0.31 or more
Protocol: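 Protein binding microarray (PBM): in vitro transcribed/translated Caupolican (Caup) homeodomain DNA-binding domain (residues 214-303) applied at 100 nM to a universal 8-mer PBM array (Agilent AMADID 015681). The 8-mer enrichment score (E-score, range -0.5 to 0.5) was computed, and each 9-mer score is the minimum E-score of its two constituent 8-mers. The E-score is the same for a 9-mer and its reverse complement; 0.31 is the stated binding threshold.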

Sequence	PBM E-score
AGAATACA	inactive: 0.257
GATGGCGA	inactive: -0.0291
CGGGAGGA	inactive: -0.179
AGGGCAGG	inactive: -0.156
AAATTTCA	inactive: -0.0347
ACTGGGTA	inactive: -0.0761
ATCTTATG	inactive: 0.0612
ACCTGGCA	inactive: -0.0292
CGTTTCAA	inactive: 0.0328
ATTGGATA	inactive: 0.11
TGCTAACA	inactive: 0.196
AATATCGT	inactive: 0.14
GTAGACCA	inactive: 0.0682
ACCAGTAT	inactive: 0.0627
GGGCACCC	inactive: -0.271
AAGAAACA	inactive: 0.216
TACCACTA	inactive: 0.159
GAGGCCAA	≥ -0.05
CCGATTAC	inactive: 0.0889
AATTGAGA	inactive: -0.0204
CAGGACAG	inactive: 0.141
ATCAAATC	inactive: 0.169
ATTTATAG	inactive: 0.146
AATGATCG	inactive: 0.0217
AGCTTGTC	inactive: 0.261

Sequence	PBM E-score
ACCACGAG	inactive: -0.0396
CGCCTCGC	inactive: -0.21
CGCCCGTA	inactive: -0.195
CATTAGAA	inactive: 0.1
ACTTACTC	inactive: 0.0632
ACTATGAT	inactive: 0.0991
ACATTAGC	inactive: 0.0684
GCACGGCC	inactive: -0.145
ATGGGACA	≥ 0.189
CAAACTGA	inactive: 0.0599
AATGGTAA	inactive: 0.0989
GAAATAAA	inactive: 0.0685
CGCCTGAG	inactive: -0.163
CGACCGCG	inactive: -0.231
ACACACCT	inactive: 0.169
CATAAGTA	inactive: 0.034
CGGACGCA	inactive: -0.198
ATATTACG	inactive: 0.16
CCACCCCA	inactive: -0.035
GTGTGCAA	inactive: 0.03
ACGATGAG	≥ 0.0856
GCATTCAA	inactive: 0.018
CCCTAATA	inactive: -0.014
GCTGTTGA	inactive: 0.0755
CGATCACA	inactive: 0.155

Sequence	PBM E-score
GAGACATA	inactive: 0.215
ACTAGTAC	inactive: 0.265
CTAGACAG	inactive: 0.0443
CGTTCTAG	inactive: 0.0128
CTCGAAAG	inactive: -0.138
ACTCCCAA	inactive: -0.0491
GCCTTTTA	inactive: -0.0859
ACTAAAAA	inactive: 0.036
GATCTTCA	inactive: 0.0402
AATTAAGA	inactive: 0.0984
GAGACCAA	inactive: -0.0656
CTACAGCA	inactive: 0.081
CAATGACA	inactive: 0.293
AGTCCCGC	inactive: -0.198
ACGTTGGA	inactive: 0.0001
GTACTGGA	inactive: 0.164
CAGCCTTC	inactive: -0.297
AAGCTGTC	inactive: 0.0365
GAGTCTGC	inactive: -0.198
GAACGTAA	inactive: 0.0362
CCCTAACA	inactive: 0.0568
AGGCATCG	inactive: -0.159
AGGGACGC	inactive: -0.166
ACCTGCGC	inactive: -0.133
GATTCTCA	inactive: 0.00058

Sequence	PBM E-score
AGAACGTC	inactive: 0.00485
CCAAGTAC	inactive: 0.0484
AGGCCCTC	inactive: -0.232
AACGAGAT	inactive: 0.108
CGTTAAGC	inactive: -0.0697
GGCTTACC	inactive: -0.223
CTTCACTC	inactive: -0.0659
AAAACACT	inactive: 0.0862
ACCTCTTC	inactive: 0.016
GCTATCTA	inactive: 0.0384
AGACTGGC	inactive: -0.142
CTGTTGCA	inactive: 0.112
AAAACGCC	inactive: -0.0844
GAGGGCCA	inactive: -0.227
CATTGTGG	inactive: 0.00422
ATTCATTA	inactive: 0.119
TCCCAGCA	inactive: -0.151
CATCGTTA	inactive: 0.101
GACCTCAC	inactive: -0.092
AGGCCTAC	inactive: -0.129
CGGTTAAC	inactive: 0.0296
ATATCCTG	inactive: 0.0991
AACAGATT	inactive: 0.131
AAGCCGTG	inactive: -0.0835
CGGGTTTC	inactive: -0.056

Sequence	PBM E-score
CGGTATAA	inactive: 0.0588
GTCATGGA	inactive: -0.0262
TAGCCGCA	inactive: -0.157
AAAGGACA	inactive: 0.181
AGAAAACA	inactive: 0.247
CGGAAACC	inactive: -0.0787
ACAAATGC	inactive: 0.138
AACGGGGT	inactive: -0.173
CCCTCAAA	inactive: -0.0958
GTGAGAAC	inactive: -0.00322
CACTGAGC	inactive: -0.0579
AGCAACCC	inactive: -0.127
AGGGATCA	inactive: -0.0397
ATTAATTC	inactive: 0.156
GTAAAGAC	inactive: 0.051
TACACTGA	inactive: 0.207
GCCCTGAC	inactive: 0.0132
ACATTCGT	≥ 0.226
AGTATCGG	inactive: 0.0739
TCACACGA	inactive: 0.132
ATGATTAA	inactive: 0.12
ACAGACTG	inactive: 0.0636
GAAGCGAA	inactive: -0.0567
ATCGGCCG	inactive: -0.227
ACAAAGGA	inactive: 0.131

Sequence	PBM E-score
CTCCAATA	inactive: -0.0437
CAATTAGG	inactive: -0.00295
GACGGTAA	inactive: -0.0932
AGACGTCG	inactive: -0.0683
CACCTATA	inactive: 0.132
AGTTTCTC	inactive: -0.0465
AAATGTAA	inactive: 0.277
GGAAACCA	inactive: -0.1
CAATCAAC	inactive: 0.139
ACTTGTCG	inactive: 0.266
GGCCTGAA	inactive: -0.23
ACTCTACG	inactive: -0.07
ACAGCGTA	inactive: 0.0321
GAAGGACA	inactive: 0.155
AAGGGCAA	inactive: -0.0594
CATTCAGC	inactive: -0.0683
ATACCCCG	inactive: -0.104
GATCAGAA	inactive: -0.00553
AGTGACAG	inactive: 0.136
CTACAAAG	inactive: 0.0968
GTCGCGCA	inactive: -0.0349
CTACCCAA	inactive: -0.027
CATGTCCA	active: 0.384
CATGGACA	inactive: 0.293
CAGCTATG	inactive: 0.0202

Sequence	PBM E-score
CAGTGTTA	inactive: 0.24
ATAATGTA	inactive: 0.273
GCGTGGCA	inactive: -0.205
AACAGGCG	inactive: 0.0552
CCGCTTGA	inactive: -0.109
CAGTCATA	inactive: 0.0563
TAGGGCAA	inactive: -0.0731
GATCGACC	inactive: -0.0614
ACCCGACC	inactive: -0.101
CCAATTGA	inactive: 0.108
CAAAATAC	inactive: 0.222
AGCGATAT	≥ 0.08
GCCCTCCC	inactive: -0.286
ATGCACTA	inactive: 0.077
GTTATTCA	inactive: 0.197
TAAGTGAA	inactive: 0.0877
GGCAAGAC	inactive: -0.106
CGCCACCC	≥ -0.0463
GACCCAAA	inactive: -0.0868
ATCACCTG	inactive: 0.116
CGTACAGC	inactive: 0.00506
CAGATCGG	inactive: -0.116
GCGAGCCA	inactive: -0.166
ACTCTGCA	inactive: -0.0238
GCTAAAGC	inactive: -0.121

Sequence	PBM E-score
CCTAGATC	inactive: -0.0411
ATTATTGG	inactive: -0.0153
GTAGTGTA	inactive: 0.161
CCTCTTTA	inactive: -0.0673
ATGGACAT	inactive: 0.276
AACCCATC	inactive: -0.00243
ACCATTTC	inactive: 0.0677
CCCGTAAG	inactive: -0.0131
GGGTGAGA	inactive: -0.129
CAGAAATG	inactive: 0.139
CGGTTCAG	inactive: -0.146
ACGCGATG	inactive: 0.00867
CCTTTCAA	inactive: -0.0664
CCAGAAGA	inactive: -0.0527
GCGCAGAC	inactive: -0.0987
AAGGCTTC	inactive: -0.117
CTCCCGAC	inactive: -0.126
ACAGCCCC	inactive: -0.157
CACCACAG	inactive: 0.00755
CCCTGACC	inactive: -0.143
ACCAAACA	inactive: 0.191
CGACTCTA	inactive: -0.0694
ATGATAGA	inactive: 0.0767
GAGAGATA	inactive: 0.0472
CCTACAAG	inactive: 0.272

Sequence	PBM E-score
CTCGGTGA	inactive: -0.0741
CTGACGTA	inactive: -0.0256
CCCTCAAG	inactive: -0.16
GTATAGAA	inactive: 0.0915
CAAAGAAC	inactive: 0.0405
CCATCAGA	inactive: -0.105
ACCTCAAC	inactive: 0.0585
ATGAACGG	inactive: 0.0314
AGTGATCG	inactive: 0.0767
ACTGTATA	inactive: 0.143
CTAGCGTC	inactive: -0.0804
GGAGTGGA	inactive: -0.133
GAAAGGCA	inactive: -0.0348
CAACCTAA	inactive: 0.104
CCCTGGTA	inactive: -0.0234
GTCGACGA	inactive: -0.0298
TACGTCCA	inactive: -0.00016
ACGGCGAA	inactive: -0.0619
CATGAAAC	inactive: 0.0872
ATCTGTAC	inactive: 0.247
AAATAACT	inactive: 0.19
AGCTATGG	inactive: -0.0927
CGACACCG	inactive: 0.019
